Molecules are shown by their SMILES. Hit rate of the full screen: of about 39,000 compounds, about 220 (0.56%) showed activity. The list shows a part of the results.
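Further: static incubation at 37 °C against the wild-type strain, values averaged over two biological replicates.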

The test concerns Escherichia coli K-12 BW25113. In words: relative growth (OD600 normalised to plate interquartile mean) (fraction); higher = less growth inhibition, active = 0.2 or less. To be noted: 50 µM; LB; incubation time: overnight (16-24 h).
On to `C[C@@H]1CCCCO[C@@H](CN(C)Cc2ccc(C(F)(F)F)cc2)[C@@H](C)CN([C@@H](C)CO)C(=O)c2cc(NC(=O)c3ccccc3)ccc2O1`, for which the relative growth is inactive: 1.02.

For `C[C@@H]1CN([C@@H](C)CO)C(=O)c2cc(NS(=O)(=O)c3ccccc3)ccc2O[C@@H](C)CCCCO[C@@H]1CN(C)C(=O)Nc1ccccc1`, the relative growth was inactive: 1.01.

`CN(C)C1CCN(C(=O)c2cnc(-c3noc4cc(-c5cccc(C(F)(F)F)c5)ccc34)s2)CC1`: the relative growth was inactive: 0.884.

On to `Nc1nc(F)nc2c1ncn2C1OC(COP(=O)(O)O)C(O)C1O` (stereo not drawn), for which the relative growth was inactive: 0.541.

Consider `C[C@H]1CN([C@@H](C)CO)C(=O)Cc2cc(NS(=O)(=O)c3ccccc3)ccc2O[C@@H]1CN(C)Cc1ccncc1`, for which the relative growth was inactive: 0.932.

Regarding `C[C@H]1CN([C@@H](C)CO)C(=O)c2cc(NS(=O)(=O)c3ccc(F)cc3)ccc2O[C@@H]1CN(C)Cc1ccc(-c2ccccc2)cc1`, the relative growth is inactive: 1.02.

On to `COc1ccc(S(=O)(=O)Nc2ccc3c(c2)CC(=O)N([C@@H](C)CO)C[C@@H](C)[C@@H](CN(C)S(=O)(=O)c2ccc(F)cc2)O3)cc1`, for which the relative growth is inactive: 1.01.

Regarding `C[C@@H]1CN([C@H](C)CO)C(=O)c2cc(NS(C)(=O)=O)ccc2O[C@@H]1CN(C)S(=O)(=O)c1ccc(Cl)cc1`, the relative growth was inactive: 1.01.

In the case of `C[C@@H]1CN([C@H](C)CO)C(=O)Cc2cc(NS(=O)(=O)c3cccs3)ccc2O[C@@H]1CN(C)S(C)(=O)=O`, the relative growth was inactive: 0.999.

Consider `Cc1noc(C)c1NC(=O)N(C)C[C@@H]1Oc2ncc(C#CC(C)(C)O)cc2C(=O)N([C@H](C)CO)C[C@@H]1C`, for which the relative growth is inactive: 1.

For the compound `C[C@@H]1CN([C@@H](C)CO)C(=O)c2cc(C#CC3CCCC3)cnc2O[C@@H]1CN(C)S(=O)(=O)c1cccc(F)c1`, the relative growth was inactive: 1.02.

As to `C[C@H](CO)N1C[C@H](C)[C@H](CN(C)C(=O)Nc2ccc3c(c2)OCO3)Oc2ccc(NC(=O)C3CC3)cc2C1=O`, the relative growth was inactive: 1.

As for `CC(C)NC(=O)Nc1ccc2c(c1)CC(=O)N([C@H](C)CO)C[C@H](C)[C@@H](CN(C)S(=O)(=O)c1ccc(F)cc1)O2`, the relative growth was inactive: 0.992.

On to `O=C(CN1CCOCC1)NCC[C@@H]1CC[C@H](NC(=O)Nc2ccccc2)[C@H](CO)O1`, for which the relative growth was inactive: 1.02.

On to `COc1ccc(S(=O)(=O)N(C)C[C@@H]2OCCCC[C@@H](C)Oc3ccc(NC(=O)Nc4ccc5c(c4)OCO5)cc3C(=O)N([C@@H](C)CO)C[C@H]2C)cc1`, for which the relative growth was inactive: 1.02.

Regarding `O=C(CCNc1n[nH]c(=O)[nH]c1=O)NCc1ccco1`, the relative growth was inactive: 0.998.

In the case of `COc1ccc(-n2nc(CCC(=O)N(C)O)cc2-c2ccc(Cl)cc2)cc1`, the relative growth was inactive: 0.861.

As for `CN(C)Cc1cn(CC[C@@H]2CC[C@H](NC(=O)Cc3cccnc3)[C@@H](CO)O2)nn1`, the relative growth is inactive: 1.

With `C[C@H](CO)N1C[C@H](C)[C@@H](CN(C)C(=O)Nc2cccc3ccccc23)Oc2ccc(NC(=O)Nc3ccc4c(c3)OCO4)cc2CC1=O`, the relative growth was inactive: 0.99.

As to `O=C(O)c1cc2c([nH]c1=O)CCC[C@@H]2O`, the relative growth was inactive: 1.02.

For the compound `CCN1CCN(C(=O)/C=C\C(=O)O)CC1`, the relative growth is inactive: 0.894.

Turning to `CC(C)NC(=O)[C@@]1(c2ccc([N+](=O)[O-])cc2)CC(=O)N(CC23CC4CC(CC(C4)C2)C3)[C@@H]1c1ccc(CO)cc1`, the relative growth was inactive: 1.03.

As for `C[C@@H]1CN([C@H](C)CO)C(=O)c2cc(NC(=O)Nc3ccc(F)cc3)ccc2O[C@@H](C)CCCCO[C@@H]1CN(C)Cc1ccc(Cl)c(Cl)c1`, the relative growth was inactive: 1.02.

Consider `C[C@H]1CN([C@@H](C)CO)C(=O)c2cc(-c3cccnc3)cnc2O[C@@H]1CN(C)Cc1ccc(Oc2ccccc2)cc1`, for which the relative growth is inactive: 1.02.

Regarding `CC(C)CC(=O)Nc1cncc(-c2ccc3[nH]nc(-c4nc5cncc(-c6cccc(F)c6)c5[nH]4)c3c2)c1`, the relative growth is inactive: 1.04.

With `Cc1noc(C)c1NC(=O)Nc1cccc2c1O[C@H](CN(C)Cc1ccc(-c3ccccc3)cc1)[C@H](C)CN([C@@H](C)CO)C2=O`, the relative growth was inactive: 1.

Take `C[C@H](CO)N1C[C@H](C)[C@H](CN(C)Cc2ccncc2)OCCCC[C@H](C)Oc2ccc(NC(=O)Nc3ccc(C(F)(F)F)cc3)cc2C1=O`: the relative growth was inactive: 0.971.

For `CC(C)(C)[S@@](=O)N1Cc2cc(C(=O)N3CCCCC3)nc(-c3cccc(C4=CCCC4)c3)c2[C@H]1CCO`, the relative growth is inactive: 1.01.

In the case of `CC1(C)CC(=O)c2c(C(F)(F)F)nn(-c3ccc(C(N)=O)c(O[C@H]4CC[C@H](N)CC4)c3)c2C1`, the relative growth is inactive: 0.996.

For `Cc1ccccc1S(=O)(=O)N1C[C@@H](O)COC[C@H]2O[C@H](CC(=O)NCCc3ccccc3)CC[C@@H]21`, the relative growth is inactive: 1.05.

On to `C[C@@H]1CN([C@H](C)CO)C(=O)c2cc(NS(=O)(=O)c3ccccc3)ccc2O[C@@H]1CN(C)C(=O)Nc1cccc2ccccc12`, for which the relative growth was inactive: 1.01.

`CN1C(=O)c2cc(NC(=O)C3CCC3)ccc2OC[C@H]2O[C@@H](CC(=O)NCCc3ccncc3)CC[C@@H]21`: the relative growth was inactive: 1.02.

With `CO[C@H]1CN(C)C(=O)c2ccc(NS(=O)(=O)c3ccccc3C)cc2OC[C@@H](C)N(S(C)(=O)=O)C[C@@H]1C`, the relative growth was inactive: 1.02.

For `COc1ccc(S(=O)(=O)Nc2ccc3c(c2)CC(=O)N([C@H](C)CO)C[C@@H](C)[C@@H](CN(C)S(=O)(=O)c2c(C)noc2C)O3)cc1`, the relative growth is inactive: 1.01.

`Cc1ccc(S[C@]2(C(=O)NCC(F)(F)F)CC(=O)N(C3CCCCC3)[C@@H]2c2ccc(CO)cc2I)cc1`: the relative growth is inactive: 1.03.

Consider `C[C@H]1CN([C@@H](C)CO)C(=O)c2cc(NS(=O)(=O)c3ccccc3)ccc2O[C@H]1CN(C)S(=O)(=O)c1cn(C)cn1`, for which the relative growth was inactive: 0.981.

On to `COCCCNC(=O)[C@@]1(Sc2ccc(C)cc2)CC(=O)N(C2CCCCC2)[C@@H]1c1ccc(CO)cc1I`, for which the relative growth was inactive: 1.01.

Take `COCC(=O)Nc1ccc2c(c1)OC[C@@H](C)N(C(=O)c1ccccc1F)C[C@H](C)[C@@H](OC)CN(C)C2=O`: the relative growth is inactive: 0.951.

Consider `C[C@H]1CN([C@@H](C)CO)C(=O)Cc2cc(NC(=O)Cc3cn(C)c4ccccc34)ccc2O[C@@H]1CN(C)Cc1ccc(Cl)c(Cl)c1`, for which the relative growth was inactive: 1.01.

Regarding `C[C@@H]1CN([C@H](C)CO)C(=O)c2cccc(NC(=O)Nc3ccccc3)c2O[C@@H]1CN(C)S(=O)(=O)c1cn(C)cn1`, the relative growth is inactive: 0.991.

Consider `C[C@H](CO)N1C[C@H](C)[C@@H](CN(C)C(=O)Nc2ccc(C(F)(F)F)cc2)Oc2c(NC(=O)CCCCCC(=O)Nc3ccccc3N)cccc2C1=O`, for which the relative growth was inactive: 1.

Regarding `Cc1ccc(S(=O)(=O)N(C)C[C@H]2OCCCC[C@H](C)Oc3ccc(NC(=O)NC4CCCCC4)cc3C(=O)N([C@@H](C)CO)C[C@H]2C)cc1`, the relative growth was inactive: 1.02.

As for `Cc1noc(C)c1NC(=O)N(C)C[C@H]1OCCCC[C@H](C)Oc2ccc(NS(=O)(=O)c3ccc(Cl)cc3)cc2C(=O)N([C@@H](C)CO)C[C@@H]1C`, the relative growth is inactive: 1.01.

For the compound `COc1ccc(CN(C)C[C@@H]2OCCCC[C@H](C)Oc3ccc(NC(=O)Nc4ccc(OC)cc4)cc3C(=O)N([C@H](C)CO)C[C@H]2C)cc1`, the relative growth was inactive: 0.986.

Turning to `C[C@H]1CN([C@@H](C)CO)C(=O)Cc2cc(NC(=O)CCCCCC(=O)Nc3ccccc3N)ccc2O[C@@H]1CN(C)C(=O)Nc1ccccc1`, the relative growth was inactive: 0.951.

For the compound `CN1C(=O)c2cc(NC(=O)C3CCC3)ccc2OC[C@@H]2O[C@@H](CC(=O)NCCc3ccncc3)CC[C@H]21`, the relative growth is inactive: 1.01.

On to `CO[C@H](CN(C)S(=O)(=O)c1ccc(F)cc1)[C@H](C)CN([C@@H](C)CO)S(=O)(=O)c1cccc(Cl)c1`, for which the relative growth was inactive: 1.05.

For `C[C@H](CO)N1C[C@H](C)[C@@H](CN(C)S(=O)(=O)c2cn(C)cn2)OCCCC[C@H](C)Oc2ccc(N(C)C)cc2C1=O`, the relative growth is inactive: 0.994.

Take `CC1OC(OC2C(O)CC(OC3C(O)CC(OC4CCC5(C)C(CCC6C5CC(O)C5(C)C(C7=CC(=O)OC7)CCC65O)C4)OC3C)OC2C)CC(O)C1O` (stereo not drawn): the relative growth is inactive: 1.16.

For the compound `C[C@@H]1CN([C@H](C)CO)S(=O)(=O)c2ccc(C#Cc3ccccc3F)cc2O[C@@H]1CN(C)C(=O)c1ccc2c(c1)OCO2`, the relative growth was inactive: 1.02.

Consider `C[C@@H]1CCCCO[C@@H](CN(C)C(=O)Nc2ccc(F)cc2)[C@H](C)CN([C@H](C)CO)C(=O)c2cc(NC(=O)Nc3cccc4ccccc34)ccc2O1`, for which the relative growth is inactive: 1.02.

In the case of `Cc1noc(C)c1NC(=O)Nc1ccc2c(c1)C(=O)N([C@H](C)CO)C[C@H](C)[C@H](CN(C)S(=O)(=O)c1ccc(F)cc1)OCCCC[C@H](C)O2`, the relative growth is inactive: 0.987.

Regarding `Cc1noc(C)c1NC(=O)N(C)C[C@@H]1Oc2ncc(C#CCN(C)C)cc2C(=O)N([C@@H](C)CO)C[C@H]1C`, the relative growth is inactive: 0.987.

For the compound `COc1ccc(NC(=O)N(C)C[C@H]2Oc3ccc(NC(=O)CCN4CCOCC4)cc3C(=O)N([C@H](C)CO)C[C@H]2C)cc1`, the relative growth was inactive: 1.03.

`CC(=O)NCCCC[C@@H]1NC(=O)[C@H]2C[C@@H](C(=O)NCc3ccc(F)cc3)[C@@H](c3ccc(O)cc3)N2C1=O`: the relative growth is inactive: 1.

Take `COc1ccc(NC(=O)N(C)C[C@@H]2Oc3ccc(NC(=O)Nc4ccc(C(F)(F)F)cc4)cc3C(=O)N([C@@H](C)CO)C[C@@H]2C)cc1`: the relative growth was inactive: 1.02.

For `COC(=O)c1c(CC[C@@H](CO)NC(=O)N2CCC[C@H]2Cn2cc(C3(O)CCCCC3)nn2)oc(C(C)=O)c1C(=O)OC`, the relative growth is inactive: 0.976.

With `C[C@@H]1CCCCO[C@H](CN(C)CC2CCCCC2)[C@H](C)CN([C@H](C)CO)C(=O)c2cc(NC(=O)Cc3ccccc3)ccc2O1`, the relative growth is inactive: 0.999.

The values are drawn from the supplement of paper PMC9446081.
